Assay results taken from US11026943B2, “Aminoquinoline derivatives and uses thereof” (UNIVERSITY OF DELHI, priority 2012, dated 2021).

Test system: primary microglia from P1 rat brains (IL-1β, IL-6, TNF-α, iNOS mRNA)

CCN(CC)CCCC(C)Nc1ccnc2cc(Cl)ccc12 (stereo not shown) [CQ, chloroquine]
LPS-induced expression of proinflammatory cytokines: suppresses
